The test system of one data set is influenza. Kind of data set: miniSTONE-2 phase III study in children 1 to <12 years: efficacy and virology. The note with it: by virus titer, same regimens.
The conditions of data set [1]: pediatric Japanese patients; considered not related to study drug; cited from earlier work.
The conditions of data set [2]: Anderson 2011; cited from earlier work.
For data set [3] the following is noted: Child weighing 24 kg; cited from earlier work.
The nature of data set [4]: Population PK model in adults and adolescents with influenza (T0821 and T0831; report S-033188-CB-272-N). The data set is classed as in vivo, human.
Data set [5] in a line: Sparse PK data in Asian pediatric study 1602T0833 (patients weighing less than 20 kg). The format is in vivo, human. The settings on record: 1 mg/kg; Asian pediatrics weighing less than 20 kg.
For data set [6] the following is noted: Japanese paediatrics.
The conditions of data set [7]: non-Asian adult patients, 40 mg, T0831 study; cited from earlier work.

“And” between values parts separate entries of the source, which are not always exact repeats. Equal entries are not always repeated. Where two headings read alike, the source gives them in different places.

On to `CCOC(=O)C1=C[C@@H](OC(CC)CC)[C@H](NC(C)=O)[C@@H](N)C1` [oseltamivir, reference compound], for which the “median time to cessation of viral shedding” value with influenza was 75.8 h and 76 h.
`COC(=O)OCOc1c2n(ccc1=O)N([C@@H]1c3ccccc3SCc3c1ccc(F)c3F)[C@@H]1COCCN1C2=O` [baloxavir marboxil]: the “most common adverse event” value in data set [1] is on record as “vomiting”. Further, the “median time to cessation of viral shedding” value in the data set with influenza was 24.2 h.
With `CN1CC[C@]23c4c5ccc(O)c4O[C@H]2[C@@H](O)C=C[C@H]3[C@H]1C5` [morphine], the “γ, hill coefficient” value in data set [2] is 3.92.
As for `O=C1c2c(O)c(=O)ccn2N([C@@H]2c3ccccc3SCc3c2ccc(F)c3F)[C@@H]2COCCN12` [baloxavir], the “Population median oral clearance” value in data set [3] was “about 3 L/h”. In data set [4] (adults), the “ALAG, absorption lag time (Estimate)” value was 0.32 h. In addition, in data set [4] (adults, body weight 64.8), the “Q/F, apparent inter-compartmental clearance (Estimate)” value is 6.27 L/h and the “Vp/F, apparent volume of peripheral compartment (Estimate)” value was 212 L. Also, the “Vc/F, apparent volume of central compartment (Estimate)” value in data set [4] (adults, body weight 64.8, Asian) is on record as 333 L. Also, in data set [4] (adults, male), the “Ka, first-order rate of absorption (Estimate)” value is 1.10 h⁻¹. In addition, in data set [4] (adults, typical value at body weight 64.8, Asian, ALT 17), the “CL/F, apparent total clearance (Estimate)” value was 5.4 L/h and 5.40 L/h. In addition, the “CL/F higher in non-Japanese at the same bodyweight” value in data set [4] (non-Japanese versus Japanese, on average) was 1.7 fold. In data set [5], the “drug concentrations briefly after dosing (mean)” value is approximately 100 ng/mL. For the same molecule, in data set [6], the “ALAG, absorption lag time (Estimate)” value is 0.47 h and the “Ka, first-order rate of absorption (Estimate)” value was 0.702 h⁻¹. For the same molecule, in data set [6] (body weight 20.7), the “CL/F, apparent total clearance (Estimate)” value is 2.72 L/h; the “Q/F, apparent inter-compartmental clearance (Estimate)” value is 1.06 L/h; the “Vc/F, apparent volume of central compartment (Estimate)” value was 117 L; the “Vp/F, apparent volume of peripheral compartment (Estimate)” value was 67.1 L. Besides, in data set [7], the AUC (usually the area under the concentration-time curve, a measure of exposure) is reported as 3371 ng·h/mL and the Cmax (commonly the maximum level reached in the sampled fluid or tissue) was 56.9 ng/mL.
